Experimental data: article PMC4336329 (PLoS ONE, 2015)
In all, about 310,000 compounds went through this assay and about 2,200 (0.71%) showed an effect of 50% or more. The effect is printed as a negative number. This is one part of the list.

What follows are compounds tested against human ether-à-go-go-related gene (hERG) potassium channel (human, UniProt Q12809) (assay: primary screen, population patch clamp on CHO cells stably expressing hERG).
Sequence of human ether-à-go-go-related gene (hERG) potassium channel (Q12809 whole entry, looked up): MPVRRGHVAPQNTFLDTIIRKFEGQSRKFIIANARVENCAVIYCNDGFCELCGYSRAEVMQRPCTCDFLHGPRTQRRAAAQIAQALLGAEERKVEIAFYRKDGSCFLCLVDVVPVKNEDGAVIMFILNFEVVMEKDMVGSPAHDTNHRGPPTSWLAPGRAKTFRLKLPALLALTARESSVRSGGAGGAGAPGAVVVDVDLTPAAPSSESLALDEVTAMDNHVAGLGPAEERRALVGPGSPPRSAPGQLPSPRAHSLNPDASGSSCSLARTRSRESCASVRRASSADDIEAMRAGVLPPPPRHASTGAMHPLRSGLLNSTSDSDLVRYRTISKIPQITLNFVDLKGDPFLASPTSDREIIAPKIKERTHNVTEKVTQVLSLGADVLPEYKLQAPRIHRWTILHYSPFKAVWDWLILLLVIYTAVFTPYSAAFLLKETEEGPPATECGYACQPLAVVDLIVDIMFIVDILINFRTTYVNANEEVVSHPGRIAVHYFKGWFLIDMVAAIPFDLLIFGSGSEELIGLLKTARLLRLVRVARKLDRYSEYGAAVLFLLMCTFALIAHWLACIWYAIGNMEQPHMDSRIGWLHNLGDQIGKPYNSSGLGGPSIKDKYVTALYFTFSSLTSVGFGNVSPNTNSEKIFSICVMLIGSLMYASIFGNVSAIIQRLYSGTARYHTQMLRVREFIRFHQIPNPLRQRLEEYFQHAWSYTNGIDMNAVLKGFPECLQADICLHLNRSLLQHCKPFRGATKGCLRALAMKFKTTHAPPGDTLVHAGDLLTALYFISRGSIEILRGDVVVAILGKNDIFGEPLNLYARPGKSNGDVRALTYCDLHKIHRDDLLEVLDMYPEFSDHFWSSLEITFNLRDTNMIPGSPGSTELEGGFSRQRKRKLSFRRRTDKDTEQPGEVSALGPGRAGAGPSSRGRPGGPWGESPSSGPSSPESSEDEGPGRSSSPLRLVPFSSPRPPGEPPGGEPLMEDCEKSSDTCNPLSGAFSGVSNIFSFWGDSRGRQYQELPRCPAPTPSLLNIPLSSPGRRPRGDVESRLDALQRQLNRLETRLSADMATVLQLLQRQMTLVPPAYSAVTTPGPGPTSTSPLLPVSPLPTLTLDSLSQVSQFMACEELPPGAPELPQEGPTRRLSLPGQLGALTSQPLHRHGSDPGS
In the case of `COc1ccc(NC(=O)C(CC(=O)O)Cc2ccc(C)cc2)cc1` (stereo not shown), the “hERG current change (%, negative = inhibition) at 1uM” value is reported as 11%. In the case of `Cc1cccc(C)c1NS(=O)(=O)c1ccc(-c2ccc(=O)[nH]n2)o1`, the “hERG current change (%, negative = inhibition) at 1uM” value is reported as 1.65%. In the case of `Cc1ccc(NC(=O)NCCCc2ccccc2)cc1`, the “hERG current change (%, negative = inhibition) at 1uM” value is reported as 1.8%. For `COc1ccc2oc(C(F)(F)C(F)F)cc(=O)c2c1`, the “hERG current change (%, negative = inhibition) at 1uM” value was 10.7%. For `NS(=O)(=O)c1ccc(S(=O)(=O)NCCc2ccccc2)cc1`, the “hERG current change (%, negative = inhibition) at 1uM” value was 10%. For `Cc1c(C(=S)NC(=O)C2CC2)c(=O)n(-c2ccccc2)n1C`, the “hERG current change (%, negative = inhibition) at 1uM” value was 17%. In the case of `O=C(CNCCc1ccccc1)N1CCc2ccccc2C1.O=C(O)C(=O)O`, the “hERG current change (%, negative = inhibition) at 1uM” value is reported as -0.954%. `Cc1cc(C)n2nc(N)c(N=Nc3ccc(Cl)cc3)c2n1` was tested, and the “hERG current change (%, negative = inhibition) at 1uM” value was 5.64%. `CC1(C)CC(N(Cc2ccc(F)cc2)C(=O)c2ccc(F)cc2)CCO1` (stereo not shown) was tested, and the “hERG current change (%, negative = inhibition) at 1uM” value was 6.39%. For `CC1CCN(S(=O)(=O)c2ccc(NC(=O)C3CSC4(C)CCC(=O)N34)cc2)CC1` (stereo not shown), the “hERG current change (%, negative = inhibition) at 1uM” value was 3.88%. For `CN(C)c1cccc2c(/C=N/O)ccc(N(C)C)c12`, the “hERG current change (%, negative = inhibition) at 1uM” value was 6.18%. For `Cc1ccc(S(=O)(=O)N2CCN(CC(O)COc3ccccc3)CC2)cc1` (stereo not shown), the “hERG current change (%, negative = inhibition) at 1uM” value was 1.6%. With `O=C(CCN1C(=O)C2C3C=CC(C3)C2C1=O)NCc1cccnc1` (stereo not shown) the “hERG current change (%, negative = inhibition) at 1uM” value was 3.42%. In the case of `O=C(CN1C(=O)c2ccccc2C1=O)Nc1nccs1`, the “hERG current change (%, negative = inhibition) at 1uM” value is reported as 10.2%. `CCCNC(=O)c1ccc(Cn2cc(C(F)(F)F)ccc2=O)cc1` was tested, and the “hERG current change (%, negative = inhibition) at 1uM” value was 4.46%. For `CC(C)(C)c1ccc(OCC(=O)O/N=C(\N)c2ccncc2)cc1`, the “hERG current change (%, negative = inhibition) at 1uM” value was 6.58%. With `O=C1[C@@H]2Cc3ccccc3CN2C(=O)N1c1cccc(F)c1` the “hERG current change (%, negative = inhibition) at 1uM” value was 2.07%. With `Cc1ccc(C)c(NS(=O)(=O)c2cc(C(=O)NCCSC3CCCCC3)ccc2C)c1` the “hERG current change (%, negative = inhibition) at 1uM” value was -0.544%. With `O=C(c1cc2ccccc2oc1=O)N1CCCC1` the “hERG current change (%, negative = inhibition) at 1uM” value was 14.7%. For `O=C(c1ccc(-c2ccccc2Cl)s1)N1CCOCC1`, the “hERG current change (%, negative = inhibition) at 1uM” value was 8.25%. For `O=C(NNS(=O)(=O)c1ccc(Cl)cc1)c1cccc(S(=O)(=O)N2CCOCC2)c1`, the “hERG current change (%, negative = inhibition) at 1uM” value was 18.2%. In the case of `Cc1ccc(C)c(S(=O)(=O)Nc2ccc(O)c(C(=O)O)c2)c1`, the “hERG current change (%, negative = inhibition) at 1uM” value is reported as 7.6%. In the case of `Cc1cccc(C(=O)N2CCN(Cc3nc4sc5c(c4c(=O)[nH]3)CCCC5)CC2)c1`, the “hERG current change (%, negative = inhibition) at 1uM” value is reported as -1.96%. `C=CCNC(=S)N/N=C/c1ccc(-c2cccc([N+](=O)[O-])c2)o1` was tested, and the “hERG current change (%, negative = inhibition) at 1uM” value was 11.9%. `Cc1ccc(NC(=O)CSc2nc(=O)n(CCCN(C)C)c3c2CCC3)c(C)c1` was tested, and the “hERG current change (%, negative = inhibition) at 1uM” value was -3.12%.
